Source: the antibiotic and cytotoxicity screens of Wong et al. (2023)
The list shows a part of the results.

test system: HSkMC (human skeletal muscle cells); assay: cytotoxicity call (relative viability < 0.9); conditions: 10 µM

Q: With COc1ccc(NC(=O)Nc2ccc3c(c2)C(=O)N([C@H](C)CO)C[C@@H](C)[C@@H](CN(C)Cc2ccc(Oc4ccccc4)cc2)O3)cc1 as the molecule, how does the cytotoxicity call read?
A: The cytotoxicity call was “inactive”.

Q: How did the cytotoxicity call turn out when C[C@@H]1CN([C@@H](C)CO)C(=O)c2cccc(NC(=O)c3cnccn3)c2O[C@H]1CN(C)CC1CCCCC1 was run?
A: The cytotoxicity call was “inactive”.

Q: With C[C@@H]1CN([C@H](C)CO)C(=O)c2cc(NC(=O)NC3CCCCC3)ccc2O[C@@H]1CN(C)S(C)(=O)=O as the molecule, how does the cytotoxicity call read?
A: The cytotoxicity call was “inactive”.

Q: How did the cytotoxicity call turn out when Nc1nc2c(ncn2COCCO)c(=O)[nH]1 was run?
A: The cytotoxicity call was “inactive”.

Q: How did the cytotoxicity call turn out when COc1cccc(S(=O)(=O)N2C[C@H](O)COC[C@H]3O[C@H](CC(=O)NCCCN4CCOCC4)CC[C@@H]32)c1 was run?
A: Its cytotoxicity call is “inactive”.

Q: How did the cytotoxicity call turn out when C[C@H](CO)N1C[C@H](C)[C@H](CN(C)C(=O)c2cccnc2)Oc2cc(C#CC3(O)CCCC3)ccc2S1(=O)=O was run?
A: The cytotoxicity call was “inactive”.

Q: For Cc1noc(C)c1NC(=O)N(C)C[C@@H]1OCCCC[C@H](C)Oc2ccc(NC(=O)CCC(F)(F)F)cc2C(=O)N([C@@H](C)CO)C[C@H]1C, which cytotoxicity call is on record?
A: Its cytotoxicity call is “inactive”.

Q: Which cytotoxicity call does the source give for NC(=O)NS(=O)(=O)c1ccc(N)cc1 here?
A: The cytotoxicity call was “inactive”.

Q: Which cytotoxicity call does the source give for C[C@H](CO)N1C[C@H](C)[C@@H](CN(C)CC2CCCCC2)Oc2c(NC(=O)Nc3ccccc3)cccc2C1=O here?
A: Its cytotoxicity call is “inactive”.

Q: How did the cytotoxicity call turn out when O=C(C[C@@H]1CC[C@H]2[C@@H](COC[C@@H](O)CN2CC2CCOCC2)O1)N1CCOCC1 was run?
A: Its cytotoxicity call is “inactive”.

Q: With N=C(N)NCCCCN.O=S(=O)(O)O as the molecule, how does the cytotoxicity call read?
A: The cytotoxicity call was “inactive”.

test system: S. aureus RN4220; assay: growth inhibition call (relative growth <= 0.2); conditions: 50 µM

Q: With C[C@@H]1CN([C@H](C)CO)C(=O)Cc2cc(NC(=O)Nc3cccc4ccccc34)ccc2O[C@H]1CN(C)Cc1ccc(Cl)c(Cl)c1 as the molecule, how does the growth inhibition call read?
A: The growth inhibition call was “inactive”.

Q: With Cc1ccc(S[C@]2(C(=O)NCCCN(C)C)CC(=O)N(Cc3ccccc3Cl)[C@@H]2c2ccc(CO)cc2I)cc1 as the molecule, how does the growth inhibition call read?
A: Its growth inhibition call is “inactive”.

Q: How did the growth inhibition call turn out when Cc1noc(C)c1S(=O)(=O)NC(C)C was run?
A: Its growth inhibition call is “inactive”.

Q: How did the growth inhibition call turn out when C[C@H](CO)N1C[C@H](C)[C@H](CN(C)Cc2ccc(-c3ccccc3)cc2)Oc2ccc(NC(=O)C3CC3)cc2C1=O was run?
A: The growth inhibition call was “inactive”.

Q: COCC(=O)N1C[C@@H](C)[C@@H](OC)CN(C)C(=O)c2ccc(NC(=O)c3ccc(F)cc3)cc2OC[C@H]1C was tested. Which growth inhibition call did it give?
A: Its growth inhibition call is “inactive”.

Q: COc1ccc(CN(C)C[C@@H]2Oc3ccc(NC(=O)Nc4ccc(C(F)(F)F)cc4)cc3CC(=O)N([C@@H](C)CO)C[C@@H]2C)cc1 was tested. Which growth inhibition call did it give?
A: The growth inhibition call was “inactive”.

Q: With O=C1c2ccccc2[C@](Cc2ccccc2I)(C(=O)NCc2ccccc2)[C@H](c2ccc(CO)cc2)N1C1CCCCC1 as the molecule, how does the growth inhibition call read?
A: The growth inhibition call was “inactive”.

Q: C[C@H](CO)N1C[C@H](C)[C@@H](CN(C)Cc2ccncc2)OCCCC[C@H](C)Oc2ccc(NS(=O)(=O)c3ccc(Cl)cc3)cc2C1=O was tested. Which growth inhibition call did it give?
A: The growth inhibition call was “inactive”.

Q: With O=C(NCc1cccc(F)c1)[C@@H]1[C@@H](CO)[C@@H]2Cn3c(cccc3=O)[C@H]1N2C(=O)c1cnccn1 as the molecule, how does the growth inhibition call read?
A: The growth inhibition call was “inactive”.

Q: With COc1ccc(S(=O)(=O)N(C)C[C@@H]2Oc3cc(-c4ccccc4OC)ccc3S(=O)(=O)N([C@@H](C)CO)C[C@@H]2C)cc1 as the molecule, how does the growth inhibition call read?
A: Its growth inhibition call is “inactive”.

Q: How did the growth inhibition call turn out when COc1ccc(S(=O)(=O)Nc2ccc3c(c2)C(=O)N([C@H](C)CO)C[C@H](C)[C@H](CN(C)Cc2ccc(Cl)c(Cl)c2)O3)cc1 was run?
A: Its growth inhibition call is “inactive”.

Q: Which growth inhibition call does the source give for C[C@@H]1CCCCO[C@H](CN(C)S(=O)(=O)c2ccc(Cl)cc2)[C@@H](C)CN([C@@H](C)CO)C(=O)c2cc(NS(=O)(=O)c3cccs3)ccc2O1 here?
A: The growth inhibition call was “inactive”.

Q: How did the growth inhibition call turn out when CN(C)CCCNC(=O)C[C@@H]1CC[C@H]2[C@@H](COc3ccc(NC(=O)c4cccc(F)c4)cc3C(=O)N2C)O1 was run?
A: The growth inhibition call was “inactive”.

Q: C[C@@H]1CCCCO[C@@H](CN(C)Cc2ccc(Cl)c(Cl)c2)[C@@H](C)CN([C@H](C)CO)C(=O)c2cc(NS(C)(=O)=O)ccc2O1 was tested. Which growth inhibition call did it give?
A: Its growth inhibition call is “inactive”.

Q: How did the growth inhibition call turn out when C[C@H]1CN([C@@H](C)CO)C(=O)c2cccc(NC(=O)c3ccc(-c4nccs4)cc3)c2O[C@H]1CN(C)C(=O)NC1CCCCC1 was run?
A: The growth inhibition call was “inactive”.

Q: For C[C@@H]1CN([C@H](C)CO)C(=O)c2cc(NS(=O)(=O)c3ccccc3)ccc2O[C@@H](C)CCCCO[C@H]1CN(C)Cc1ccc(Cl)c(Cl)c1, which growth inhibition call is on record?
A: Its growth inhibition call is “inactive”.

Q: How did the growth inhibition call turn out when O=C1c2ccccc2C(=O)C1c1ccc(Cl)cc1 was run?
A: The growth inhibition call was “inactive”.

Q: How did the growth inhibition call turn out when C[C@H]1CN([C@@H](C)CO)C(=O)c2cc(C#CC3(O)CCCC3)cnc2O[C@H]1CN(C)C(=O)Cc1ccccc1 was run?
A: The growth inhibition call was “inactive”.

Q: Which growth inhibition call does the source give for Cc1ccc(S(=O)(=O)Nc2ccc3c(c2)C(=O)N([C@@H](C)CO)C[C@H](C)[C@H](CN(C)C(=O)NC2CCCCC2)OCCCC[C@H](C)O3)cc1 here?
A: Its growth inhibition call is “inactive”.

Q: With COc1ccc(S(=O)(=O)N(C)C[C@@H]2OCCCC[C@@H](C)Oc3ccc(NC(=O)Nc4ccc(F)cc4)cc3C(=O)N([C@@H](C)CO)C[C@@H]2C)cc1 as the molecule, how does the growth inhibition call read?
A: The growth inhibition call was “inactive”.

Q: C[C@@H]1CN([C@@H](C)CO)S(=O)(=O)c2ccc(C#CC(C)(C)O)cc2O[C@H]1CN(C)C(=O)C1CCCCC1 was tested. Which growth inhibition call did it give?
A: The growth inhibition call was “inactive”.

Q: For C[C@H]1CN([C@@H](C)CO)S(=O)(=O)c2ccc(C#CCN(C)C)cc2O[C@H]1CN(C)S(C)(=O)=O, which growth inhibition call is on record?
A: The growth inhibition call was “inactive”.

Q: For C[C@@H]1CN([C@@H](C)CO)C(=O)c2cccc(NC(=O)Nc3cccc4ccccc34)c2O[C@@H]1CN(C)S(=O)(=O)c1cccs1, which growth inhibition call is on record?
A: The growth inhibition call was “inactive”.

Q: Which growth inhibition call does the source give for C[C@@H](NC(=O)c1ccccc1)C(=O)NN here?
A: The growth inhibition call was “inactive”.

Q: With C[C@H](CO)N1C[C@H](C)[C@@H](CN(C)C(=O)Nc2ccc(F)cc2)OCCCC[C@H](C)Oc2ccc(NS(=O)(=O)c3ccc(Cl)cc3)cc2C1=O as the molecule, how does the growth inhibition call read?
A: The growth inhibition call was “inactive”.

Q: For C[C@@H]1CCCCO[C@@H](CN(C)Cc2ccc(Cl)c(Cl)c2)[C@H](C)CN([C@H](C)CO)C(=O)c2cc(NC(=O)CCC(F)(F)F)ccc2O1, which growth inhibition call is on record?
A: Its growth inhibition call is “inactive”.

Q: Which growth inhibition call does the source give for C=CC[C@H](CC(=O)NCCO)C(=O)N[C@@H](COC(=O)[C@@H](CC=C)CC(=O)OC(C)(C)C)Cc1ccccc1 here?
A: The growth inhibition call was “inactive”.

Q: Which growth inhibition call does the source give for CC(C)(C)OC(=O)C[C@@H]1CC=CC[C@H](CC(=O)N[C@@H](CO)Cc2ccccc2)C(=O)N2CCC[C@@H]2COC1=O here?
A: The growth inhibition call was “inactive”.

Q: With O=C(NCCCN1CCOCC1)C(=O)NC1CC1 as the molecule, how does the growth inhibition call read?
A: The growth inhibition call was “inactive”.

Q: With COc1ccc(NC(=O)Nc2ccc3c(c2)C(=O)N([C@H](C)CO)C[C@@H](C)[C@@H](CN(C)Cc2ccc(Oc4ccccc4)cc2)O3)cc1 as the molecule, how does the growth inhibition call read?
A: Its growth inhibition call is “inactive”.

Q: How did the growth inhibition call turn out when C[C@@H]1CN([C@@H](C)CO)C(=O)c2cccc(NC(=O)c3cnccn3)c2O[C@H]1CN(C)CC1CCCCC1 was run?
A: The growth inhibition call was “inactive”.

Q: How did the growth inhibition call turn out when C[C@@H]1CN([C@H](C)CO)C(=O)c2cc(NC(=O)NC3CCCCC3)ccc2O[C@@H]1CN(C)S(C)(=O)=O was run?
A: The growth inhibition call was “inactive”.

Q: Nc1nc2c(ncn2COCCO)c(=O)[nH]1 was tested. Which growth inhibition call did it give?
A: Its growth inhibition call is “inactive”.

Q: COc1cccc(S(=O)(=O)N2C[C@H](O)COC[C@H]3O[C@H](CC(=O)NCCCN4CCOCC4)CC[C@@H]32)c1 was tested. Which growth inhibition call did it give?
A: The growth inhibition call was “inactive”.

Q: C[C@H](CO)N1C[C@H](C)[C@H](CN(C)C(=O)c2cccnc2)Oc2cc(C#CC3(O)CCCC3)ccc2S1(=O)=O was tested. Which growth inhibition call did it give?
A: The growth inhibition call was “inactive”.

Q: Cc1noc(C)c1NC(=O)N(C)C[C@@H]1OCCCC[C@H](C)Oc2ccc(NC(=O)CCC(F)(F)F)cc2C(=O)N([C@@H](C)CO)C[C@H]1C was tested. Which growth inhibition call did it give?
A: The growth inhibition call was “inactive”.

Q: With NC(=O)NS(=O)(=O)c1ccc(N)cc1 as the molecule, how does the growth inhibition call read?
A: The growth inhibition call was “inactive”.

Q: For C[C@H](CO)N1C[C@H](C)[C@@H](CN(C)CC2CCCCC2)Oc2c(NC(=O)Nc3ccccc3)cccc2C1=O, which growth inhibition call is on record?
A: The growth inhibition call was “inactive”.

Q: For O=C(C[C@@H]1CC[C@H]2[C@@H](COC[C@@H](O)CN2CC2CCOCC2)O1)N1CCOCC1, which growth inhibition call is on record?
A: The growth inhibition call was “inactive”.

Q: How did the growth inhibition call turn out when N=C(N)NCCCCN.O=S(=O)(O)O was run?
A: Its growth inhibition call is “inactive”.
